Drawing on the supplement of paper PMC9446081, this text covers relative growth for 41 compounds.

The whole screen tested about 39,000 compounds, of which about 220 (0.56%) showed activity. The list shows a part of the results.
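Note: static incubation at 37 °C against the wild-type strain, values averaged over two biological replicates.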

In this test the test system is Escherichia coli K-12 BW25113. Nature of the test: relative growth (OD600 normalised to plate interquartile mean) (fraction); higher = less growth inhibition, active = 0.2 or less. The conditions noted are these: 50 µM; LB; incubation time: overnight (16-24 h).
With `COc1ccc([Si](C)(C)[C@H]2[C@H](CCn3cc([C@H](O)c4ccccc4)nn3)O[C@@]3(C(=O)N(C)c4c(Br)cc(C)cc43)[C@@H]2C)cc1`, the relative growth was inactive: 0.886.
On to `CCNC(=O)c1cccc(NS(C)(=O)=O)c1`, for which the relative growth was inactive: 0.976.
With `C[C@@H]1CN([C@@H](C)CO)C(=O)Cc2cc(NS(=O)(=O)c3ccccc3)ccc2O[C@@H]1CN(C)Cc1ccc(Cl)c(Cl)c1` the figure was inactive: 0.994; with `C[C@@H]1CN([C@H](C)CO)C(=O)Cc2cc(NC(=O)C3CC3)ccc2O[C@@H]1CN(C)S(=O)(=O)c1ccc(Cl)cc1`, inactive: 0.977.
With `C[C@H]1CN([C@@H](C)CO)C(=O)c2cc(NC(=O)Nc3cccc4ccccc34)ccc2O[C@H]1CN(C)Cc1ccc(C(=O)O)cc1` the figure was inactive: 0.992; with `CN(C)C(=O)C[C@@H]1CC[C@H]2[C@@H](COC[C@H](O)CN2S(=O)(=O)c2ccccc2)O1`, inactive: 1.01; with `CC(C)NC(=O)N(C)C[C@@H]1Oc2ccc(NS(=O)(=O)c3cccs3)cc2C(=O)N([C@@H](C)CO)C[C@@H]1C`, inactive: 0.996.
For `C[C@@H]1CCCCO[C@@H](CN(C)C(=O)Cc2ccccc2)[C@@H](C)CN([C@@H](C)CO)C(=O)c2cc(NC(=O)c3ccccc3)ccc2O1`, the relative growth is inactive: 0.985.
Take `N=C(N=C(N)N)N1N=CC[C@@H]1c1ccccc1`: the relative growth was inactive: 1.01.
As for `C[C@@H]1CCCCO[C@@H](CN(C)S(=O)(=O)c2cccs2)[C@H](C)CN([C@@H](C)CO)C(=O)c2cc(NC(=O)Nc3ccccc3)ccc2O1`, the relative growth was inactive: 1.02.
With `C[C@H]1CC/C=C\[C@H]2O[C@@]34C=CCN(Cn5nnc6ccccc65)C(=O)[C@H]3N(CCCCCO)C(=O)[C@@H]4[C@@H]2C(=O)O1` the figure was inactive: 0.977.
With `COc1ccc(-c2cn(CCCNC(=O)[C@H](Cc3ccccc3)NS(=O)(=O)c3ccc(C)cc3)nn2)cc1OC` the figure was inactive: 1.02; with `COc1ccc2c3c(n(c2c1)C)[C@H](CO)N(C[C@]13CCN(CC1)C(=O)CN(C)C)C(=O)C1CCCCC1`, inactive: 1.03.
With `COc1ccc(NC(=O)N(C)C[C@@H]2OCCCC[C@@H](C)Oc3ccc(NS(=O)(=O)c4ccc(C)cc4)cc3C(=O)N([C@H](C)CO)C[C@@H]2C)cc1` the figure was inactive: 0.987; with `C[C@@H]1CN([C@@H](C)CO)C(=O)Cc2cc(NC(=O)Cn3cnnn3)ccc2O[C@@H]1CN(C)S(=O)(=O)c1ccccc1`, inactive: 1.01; with `C[C@H](CO)N1C[C@H](C)[C@@H](CN(C)Cc2ccncc2)Oc2ccc(NC(=O)CCN3CCOCC3)cc2C1=O`, inactive: 1.05.
With `N#Cc1ccc[nH]c1=O`, the relative growth is inactive: 1.01.
On to `O=C(C[C@@H]1C[C@@H]2c3cc(NC(=O)c4ccc5c(c4)OCO5)ccc3O[C@@H]2[C@@H](CO)O1)NCCc1ccccc1`, for which the relative growth was inactive: 1.01.
With `C[C@H](CO)N1C[C@H](C)[C@@H](CN(C)S(=O)(=O)c2ccccc2)Oc2c(NS(=O)(=O)c3cn(C)cn3)cccc2C1=O` the figure was inactive: 0.979; with `COc1ccccc1-c1ccc2n(c1=O)C[C@H]1[C@H](CO)[C@@H](C(=O)NCC3CC3)N(S(C)(=O)=O)[C@@H]21`, inactive: 0.976; with `Nc1nnc(C2CC2)o1`, inactive: 1.03.
On to `C[C@H](CO)N1C[C@H](C)[C@H](CN(C)S(=O)(=O)c2cccs2)Oc2c(NC(=O)c3cnccn3)cccc2C1=O`, for which the relative growth is inactive: 1.02.
For the compound `CC(C)NC(=O)N[C@@H]1C=C[C@H](CC(=O)NCCN2CCCC2)O[C@H]1CO`, the relative growth was inactive: 0.85.
On to `Cc1noc(C)c1NC(=O)Nc1ccc2c(c1)C(=O)N([C@@H](C)CO)C[C@H](C)[C@H](CN(C)S(C)(=O)=O)O2`, for which the relative growth is inactive: 1.
With `CO[C@H]1CN(C)C(=O)c2ccc(NC(=O)NC(C)C)cc2OC[C@H](C)N(Cc2ccc(-c3ccccn3)cc2)C[C@@H]1C` the figure was inactive: 0.965; with `C[C@H](CO)N1C[C@H](C)[C@@H](CN(C)Cc2ccc(Oc3ccccc3)cc2)Oc2ccc(NC(=O)CCC(F)(F)F)cc2CC1=O`, inactive: 0.965.
As to `C[C@H](CO)N1C[C@H](C)[C@@H](CN(C)C)Oc2cc(C#C[C@@H](C)O)ccc2S1(=O)=O`, the relative growth is inactive: 0.983.
On to `Cc1ccc(S(=O)(=O)N(C)C[C@@H]2Oc3c(NC(=O)c4cnccn4)cccc3C(=O)N([C@@H](C)CO)C[C@@H]2C)cc1`, for which the relative growth was inactive: 1.
Regarding `COc1ccc2c3c(n(c2c1)C)[C@@H](CO)N(C[C@]13CCN(CC1)C(=O)C1CC1)C(=O)CN1CCOCC1`, the relative growth was inactive: 0.989.
With `Cc1cc(O)cc(O)c1C(=O)O` the figure was inactive: 0.87; with `C[C@@H]1CCCCO[C@@H](CN(C)S(=O)(=O)c2cccs2)[C@H](C)CN([C@H](C)CO)C(=O)c2cc(NC(=O)NC3CCCCC3)ccc2O1`, inactive: 1.03.
Turning to `Cn1c2c(c(=O)n(C)c1=O)CN(CC1CC1)CN2`, the relative growth was inactive: 1.
On to `CN(C)CC(=O)N[C@@H]1CC[C@H](CC(=O)O)O[C@H]1CO`, for which the relative growth was inactive: 1.01.
With `O=c1ccc(=O)n(-c2ccccc2)[nH]1` the figure was inactive: 0.857; with `Cc1n[nH]c(=S)n1N`, inactive: 0.968; with `C[C@@H]1CCCCO[C@@H](CN(C)Cc2ccc(C(=O)O)cc2)[C@H](C)CN([C@@H](C)CO)C(=O)c2cc(NC(=O)Nc3ccccc3)ccc2O1`, inactive: 1.01.
With `CC(=O)N(C)C[C@@H]1Oc2ncc(C#CC(C)(C)O)cc2C(=O)N([C@H](C)CO)C[C@H]1C` the figure was inactive: 0.991; with `C[C@H](CO)N1C[C@H](C)[C@H](CN(C)C(=O)Nc2ccc(C(F)(F)F)cc2)Oc2ccc(NS(C)(=O)=O)cc2CC1=O`, inactive: 1.03; with `COc1ccc(NC(=O)N(C)C[C@@H]2Oc3ccc(NC(=O)CCN4CCOCC4)cc3CC(=O)N([C@@H](C)CO)C[C@@H]2C)cc1`, inactive: 0.995.
Turning to `C[C@H](CO)N1C[C@H](C)[C@@H](CN(C)Cc2ccncc2)OCCCC[C@H](C)Oc2ccc(NC(=O)CCC(F)(F)F)cc2C1=O`, the relative growth is inactive: 0.991.
Consider `C[C@@H]1CCCCO[C@H](CN(C)C(=O)Cc2ccccc2)[C@H](C)CN([C@H](C)CO)C(=O)c2cc(NC(=O)c3ccccc3)ccc2O1`, for which the relative growth is inactive: 0.958.
